This is one part of the list.

This test deals with T1, MBP-FoxP1dN (Mus musculus, UniProt P58462 326-579).
T1 sequence: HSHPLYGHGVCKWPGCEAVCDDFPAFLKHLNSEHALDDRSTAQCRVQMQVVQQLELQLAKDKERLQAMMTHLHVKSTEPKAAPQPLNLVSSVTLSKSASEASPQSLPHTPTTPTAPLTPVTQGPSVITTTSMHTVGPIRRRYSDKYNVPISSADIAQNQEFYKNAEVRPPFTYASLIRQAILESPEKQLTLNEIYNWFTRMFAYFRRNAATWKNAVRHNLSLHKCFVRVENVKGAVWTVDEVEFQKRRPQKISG
Briefly: PD-seq (MBP pull-down with sequencing); 20 mM Tris-HCl pH 7.5, 100 mM NaCl, 1.5 mM MgCl2, 0.4 uM protein, 0.1 uM dsDNA library, 30 min, room temperature, amylose pull-down; high values mean tight binding. The following applies: protein: recombinant; tags: His6-MBP; chain copies: 2; dsDNA, one strand shown. The method, boiled down: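 Mouse FoxP3 or FoxP1 fragment lacking the N-terminus, His6-MBP-tagged and expressed in E. coli, was incubated at 0.4 µM with 0.1 µM Klenow-filled degenerate double-stranded DNA library for 30 min at room temperature in Tris pH 7.5 buffer with NaCl and MgCl2. Complexes captured on amylose resin were washed three times and their DNA sequenced on Illumina. Binding is reads-per-million enrichment of pull-down over input, replicates pooled.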
As for “GATGATTGTTCTCCCAGCTGATGAATTTGAGAGGTCGAGTAAACAAATTTTCCTAATCTTTCTGTTCAAGCGCCATCTAC”, the binding signal was 0.717 RPM ratio (pull-down/input).
For “GATGATTGTTCTCCCAGCTGATGAATTCGAATATTCGAGTAAACAAATTTTCCTAATCTTTCTGTTCAAGCGCCATCTAC” the value was 0.877 RPM ratio (pull-down/input); for “GATGATTGTTCTCCCAGCTGATGAATTTCCGATTTCGAGTAAACAAATTTTCCTAATCTTTCTGTTCAAGCGCCATCTAC”, 0.898 RPM ratio (pull-down/input).
With “GATGATTGTTCTCCCAGCTGATGAATTGTGAGTTTCGAGTAAACAAATTTTCCTAATCTTTCTGTTCAAGCGCCATCTAC” the figure was 1.11 RPM ratio (pull-down/input).
For “GATGATTGTTCTCCCAGCTGATGAATTCTCCGGATCGAGTAAACAAATTTTCCTAATCTTTCTGTTCAAGCGCCATCTAC”, the binding signal is 0.76 RPM ratio (pull-down/input).
With “GATGATTGTTCTCCCAGCTGATGAATTTGTTAGATCGAGTAAACAAATTTTCCTAATCTTTCTGTTCAAGCGCCATCTAC” the figure was 1.21 RPM ratio (pull-down/input); with “GATGATTGTTCTCCCAGCTGATGAATTGATCGTATCGAGTAAACAAATTTTCCTAATCTTTCTGTTCAAGCGCCATCTAC”, 1.03 RPM ratio (pull-down/input); with “GATGATTGTTCTCCCAGCTGATGAATTCTTGTCTTCGAGTAAACAAATTTTCCTAATCTTTCTGTTCAAGCGCCATCTAC”, 0.873 RPM ratio (pull-down/input).
For “GATGATTGTTCTCCCAGCTGATGAATTTCACTGATCGAGTAAACAAATTTTCCTAATCTTTCTGTTCAAGCGCCATCTAC” the value was 0.816 RPM ratio (pull-down/input); for “GATGATTGTTCTCCCAGCTGATGAATTGATGGGGTCGAGTAAACAAATTTTCCTAATCTTTCTGTTCAAGCGCCATCTAC”, 0.84 RPM ratio (pull-down/input).
Take “GATGATTGTTCTCCCAGCTGATGAATTTGATGCCTCGAGTAAACAAATTTTCCTAATCTTTCTGTTCAAGCGCCATCTAC”: the binding signal was 1.06 RPM ratio (pull-down/input).
On to “GATGATTGTTCTCCCAGCTGATGAATTTATCTTGTCGAGTAAACAAATTTTCCTAATCTTTCTGTTCAAGCGCCATCTAC”, for which the binding signal was 0.992 RPM ratio (pull-down/input).
For “GATGATTGTTCTCCCAGCTGATGAATTTCAGGGCTCGAGTAAACAAATTTTCCTAATCTTTCTGTTCAAGCGCCATCTAC” the value was 0.746 RPM ratio (pull-down/input); for “GATGATTGTTCTCCCAGCTGATGAATTCGGTAAATCGAGTAAACAAATTTTCCTAATCTTTCTGTTCAAGCGCCATCTAC”, 1.22 RPM ratio (pull-down/input); for “GATGATTGTTCTCCCAGCTGATGAATTGAGATCATCGAGTAAACAAATTTTCCTAATCTTTCTGTTCAAGCGCCATCTAC”, 0.904 RPM ratio (pull-down/input).
With “GATGATTGTTCTCCCAGCTGATGAATTCGATCGTTCGAGTAAACAAATTTTCCTAATCTTTCTGTTCAAGCGCCATCTAC” the figure was 0.836 RPM ratio (pull-down/input); with “GATGATTGTTCTCCCAGCTGATGAATTATAATAATCGAGTAAACAAATTTTCCTAATCTTTCTGTTCAAGCGCCATCTAC”, 1.51 RPM ratio (pull-down/input); with “GATGATTGTTCTCCCAGCTGATGAATTAAATCCGTCGAGTAAACAAATTTTCCTAATCTTTCTGTTCAAGCGCCATCTAC”, 0.827 RPM ratio (pull-down/input).
For “GATGATTGTTCTCCCAGCTGATGAATTTCGTGCTTCGAGTAAACAAATTTTCCTAATCTTTCTGTTCAAGCGCCATCTAC” the value was 0.919 RPM ratio (pull-down/input).
For the sequence “GATGATTGTTCTCCCAGCTGATGAATTACGAGTGTCGAGTAAACAAATTTTCCTAATCTTTCTGTTCAAGCGCCATCTAC”, the binding signal is 1.09 RPM ratio (pull-down/input).
For “GATGATTGTTCTCCCAGCTGATGAATTTTGCGGATCGAGTAAACAAATTTTCCTAATCTTTCTGTTCAAGCGCCATCTAC” the value was 0.89 RPM ratio (pull-down/input); for “GATGATTGTTCTCCCAGCTGATGAATTGACCTCCTCGAGTAAACAAATTTTCCTAATCTTTCTGTTCAAGCGCCATCTAC”, 0.877 RPM ratio (pull-down/input).
With “GATGATTGTTCTCCCAGCTGATGAATTGGACCGCTCGAGTAAACAAATTTTCCTAATCTTTCTGTTCAAGCGCCATCTAC” the figure was 0.785 RPM ratio (pull-down/input); with “GATGATTGTTCTCCCAGCTGATGAATTCACGGATTCGAGTAAACAAATTTTCCTAATCTTTCTGTTCAAGCGCCATCTAC”, 0.876 RPM ratio (pull-down/input); with “GATGATTGTTCTCCCAGCTGATGAATTAGTAGGGTCGAGTAAACAAATTTTCCTAATCTTTCTGTTCAAGCGCCATCTAC”, 0.898 RPM ratio (pull-down/input).
For “GATGATTGTTCTCCCAGCTGATGAATTACCACCGTCGAGTAAACAAATTTTCCTAATCTTTCTGTTCAAGCGCCATCTAC” the value was 0.941 RPM ratio (pull-down/input); for “GATGATTGTTCTCCCAGCTGATGAATTGTTTGGTTCGAGTAAACAAATTTTCCTAATCTTTCTGTTCAAGCGCCATCTAC”, 1.81 RPM ratio (pull-down/input).
For the sequence “GATGATTGTTCTCCCAGCTGATGAATTTGCAGGATCGAGTAAACAAATTTTCCTAATCTTTCTGTTCAAGCGCCATCTAC”, the binding signal was 0.869 RPM ratio (pull-down/input).
With “GATGATTGTTCTCCCAGCTGATGAATTGGCAGAGTCGAGTAAACAAATTTTCCTAATCTTTCTGTTCAAGCGCCATCTAC” the figure was 0.838 RPM ratio (pull-down/input); with “GATGATTGTTCTCCCAGCTGATGAATTTTTCCCATCGAGTAAACAAATTTTCCTAATCTTTCTGTTCAAGCGCCATCTAC”, 1 RPM ratio (pull-down/input).
In the case of “GATGATTGTTCTCCCAGCTGATGAATTCTCTCGATCGAGTAAACAAATTTTCCTAATCTTTCTGTTCAAGCGCCATCTAC”, the binding signal was 0.877 RPM ratio (pull-down/input).
Consider “GATGATTGTTCTCCCAGCTGATGAATTCATATCTTCGAGTAAACAAATTTTCCTAATCTTTCTGTTCAAGCGCCATCTAC”, for which the binding signal is 0.965 RPM ratio (pull-down/input).

For the origin of these results see PMC12820563, “FoxP3 forms a head-to-head dimer in vivo and stabilizes its multimerization on adjacent microsatellites”.
